Test results published in PubChem BioAssay AID2147 (National Center for Advancing Translational Sciences (NCATS), 2009).
Several values for one entry are separate records, joined by “and”; a condition that tells them apart may be missing. Identical values can stand only once. Screen size: about 230,000 compounds; about 3,600 (1.6%) were called active. Inconclusive results, whose numbers are uncertain, are shown with a selection of clear calls. The call rests on the fitted dose curve; in most records, active means well fitted inhibition curve with a large enough effect (not every such curve was filed as active); inconclusive means small, poorly fitted or top-dose-only effect, or another doubt; inactive means no such curve, though single readings can be large or run the other way. Potencies of inconclusive entries are doubtful fits and often do not repeat. Some compounds were tested as several samples or in several runs, with calls that do not always agree.

target: Lysine-specific demethylase 4E (Homo sapiens) (UniProt B2RXH2); test: qHTS Assay for Inhibitors of Human Jumonji Domain Containing 2E (JMJD2E); details: JMJD2E catalytic domain, FDH-coupled NADH fluorescence (FDH is formaldehyde dehydrogenase); series mostly up to 57.1 µM; activity change, negative = inhibition: at the top concentration
Sequence of UniProt B2RXH2 (B2RXH2 whole entry, looked up, the tested form may be a part): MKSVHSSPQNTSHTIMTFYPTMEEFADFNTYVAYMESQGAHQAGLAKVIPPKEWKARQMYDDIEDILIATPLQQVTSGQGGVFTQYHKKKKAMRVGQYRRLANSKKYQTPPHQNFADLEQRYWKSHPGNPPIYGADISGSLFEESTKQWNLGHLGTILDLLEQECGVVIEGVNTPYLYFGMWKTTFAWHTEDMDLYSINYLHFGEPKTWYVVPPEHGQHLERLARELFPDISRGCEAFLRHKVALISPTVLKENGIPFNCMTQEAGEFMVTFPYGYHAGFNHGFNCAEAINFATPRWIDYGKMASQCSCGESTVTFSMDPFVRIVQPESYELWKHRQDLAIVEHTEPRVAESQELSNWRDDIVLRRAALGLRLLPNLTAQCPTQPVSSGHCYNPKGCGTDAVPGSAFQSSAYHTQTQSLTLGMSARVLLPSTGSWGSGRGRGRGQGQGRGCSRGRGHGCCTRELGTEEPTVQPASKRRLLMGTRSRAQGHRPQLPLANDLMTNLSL
Further: nearly all actives have a fitted effect of over 50% in size.
Potency means the concentration at half of the fitted maximal effect; tags describe the fitted curve by direction and shape.
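Wherever activity change, negative = inhibition is given: 0% = wells with enzyme and -100% = buffer wells without enzyme.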

| Compound | Potency | activity change, negative = inhibition |
| --- | --- | --- |
| CCOC(=O)C1CCCN(CC(=O)Nc2c(C(=O)OC)[nH]c3ccc(C)cc23)C1 (stereo not given) | inconclusive: 31.6 µM [inhibitor, partial curve] | – |
| COc1ccc(NC(=O)N2CCCC2C(=O)NCc2ccc(C)cc2)cc1 (stereo not given) | – | inactive: 1.2% |
| COc1ccc(CCNCCC(=O)Nc2c(C)cc(C)cc2C)cc1OC | – | inactive: 11.3% |
| CCC(C)NCCOCCOc1ccc(Cl)c2ccccc12 (stereo not given) | inconclusive: 31.6 µM [inhibitor, partial curve] | – |
| O=[N+]([O-])c1ccc(N/N=C/c2sc(N3CCOCC3)nc2-c2ccccc2)c(S(=O)(=O)Nc2ccccc2Cl)c1 | – | inactive: -2.61% |
| O=C1c2ccccc2C(Nc2ccccc2)N1Cc1ccc2c(c1)OCO2 (stereo not given) | – | inactive: -1.43% |
| O=C1C=CC(=C(c2ccc(O)cc2)c2ccc(O)cc2)C=C1 | inconclusive: 39.8 µM [inhibitor, single point] | – |
| Cc1ccc(N2C(=O)SC(Cc3ccccc3)C2=O)cc1 (stereo not given) | inconclusive: 35.5 µM [inhibitor, single point] | – |
| NC(=O)c1cnn2c(C(F)(F)F)cc(-c3ccccc3)nc12 | inconclusive: 25.1 µM [inhibitor, single point] | – |
| CCN(CC)CCCN1C=C2C(=O)C(C)(OC(=O)CCC(=O)OC)C(=O)C=C2C=C1C1CC1 (stereo not given) | inconclusive: 3.55 µM [inhibitor, partial curve] | – |
| CCCCn1c(SCC(=O)NCCOC)nc2ccc(N3CCOCC3)cc2c1=O | inconclusive: 31.6 µM [inhibitor, partial curve] | – |
| CCOc1ccc(N2C(=O)c3cccnc3C2Nc2ccc(Cl)cc2)cc1 (stereo not given) | – | inactive: 3.38% |
| CCN(CC)CCCNc1oc(/C=C/c2ccccc2)nc1C#N | inconclusive: 0.631 µM [inhibitor, partial curve, poor fit] | – |
| CC(C)Oc1cccc(C(=O)NC2=NCCS2)c1 | inconclusive: 39.8 µM [inhibitor, single point] | – |
| Fc1ccc(CNc2nc(-c3ccco3)cc(C(F)(F)F)n2)cc1 | inconclusive: 28.2 µM [inhibitor, partial curve] | – |
| COc1ccccc1N1CCN(C(=O)c2cc(-c3ccco3)on2)CC1 | – | inactive: -7.67% |
| CC1CCCCN1C(=O)c1cc(-c2ccc(Cl)c(Cl)c2)on1 (stereo not given) | – | inactive: 2.69% |
| Cc1cc(NC(=O)c2ccccc2)nc(C)n1 | – | inactive: 11.9% |
| CCOC(=O)c1c(NC(=O)C2CCCO2)sc(C)c1C (stereo not given) | inconclusive: 35.5 µM [inhibitor, single point] | – |
| O=C(CN1CCN(c2ccc(Cl)cc2)CC1)Nc1ccc(F)cc1 | – | inactive: 6.26% |
| O=C(Nc1ccc(-c2nc3c(ccc4ccccc43)o2)cc1)c1ccco1 | inconclusive: 28.2 µM [inhibitor, partial curve] | – |
| O=C(N/N=C/c1ccccn1)c1cc(-c2ccc(Cl)cc2)nc2ccccc12 | inconclusive: 17.8 µM [inhibitor, partial curve] | – |
| Cc1ccc(C(=O)N/C(=C/c2ccco2)C(=O)O)cc1 | – | inactive: 0.798% |
| CCOC(=O)c1c(-c2cccs2)csc1NC(=O)c1ccncc1 | – | inactive: -17% |
| Clc1ccccc1C1=CC(c2ccco2)n2nnnc2N1 (stereo not given) | – | inactive: -3.12% |

| Compound | Potency | activity change, negative = inhibition |
| --- | --- | --- |
| Cc1nc2ccc(NC(=O)N3CCC(c4ccccc4)C3)cc2nc1C (stereo not given) | inconclusive: 7.94 µM [inhibitor, full curve] | – |
| O=C(Nc1nnc(C2=COCCO2)o1)c1ccc(Cl)cc1 | inconclusive: 35.5 µM [inhibitor, single point] | – |
| C1CCC(C23CC4CC(CC(C4)C2)C3)NC1 (stereo not given) | – | inactive: 2.38% |
| NC(=O)c1nsc(C(=O)N(CC(=O)NCc2ccc(F)cc2)Cc2ccco2)c1N | inconclusive: 28.2 µM [inhibitor, single point] | – |
| N#CCCn1c(SCC(=O)NCC2CCCO2)nc2ccccc21 (stereo not given) | – | inactive: -3.53% |
| COc1cc(/C=C(\CC(=O)O)c2nc3ccccc3s2)cc(OC)c1O | inconclusive: 39.8 µM [inhibitor, single point] | – |
| CCCCCOc1ccc(/C=c2\sc3nc(=O)c(-c4ccccc4)nn3c2=O)cc1OC | – | inactive: -2.1% |
| CC(=O)c1ccc(OC2OCCOC2Oc2ccc(C(C)=O)cc2)cc1 (stereo not given) | – | inactive: 9.51% |
| N#C/C(=C/c1ccc(Sc2nc3ccccc3[nH]2)o1)c1ccccc1F | inconclusive: 35.5 µM [inhibitor, single point] | – |
| CC(/C=N/n1c(-c2ccccn2)n[nH]c1=S)=C\c1ccccc1 | – | inactive: -6.07% |
| CCOC(=O)c1c(C)n(C)c2ccc(O)c(S(=O)(=O)c3ccccc3)c12 | inconclusive: 35.5 µM [inhibitor, single point] | – |
| COc1ccc(-c2nc3ccccc3n2Cc2ccccc2)cc1 | – | inactive: 4.58% |
| C=CCn1c(-c2ccc(C)cc2)nc2ccccc21 | inconclusive: 25.1 µM [inhibitor, single point] | – |
| CCc1nnc(NC(=O)c2sc3nc(C)cc(COC)c3c2N)s1 | inconclusive: 28.2 µM [inhibitor, single point] | – |
| CCC(=O)c1c(OCc2ccccc2)ccc2c(C)cc(=O)oc12 | inconclusive: 2.51 µM [inhibitor, partial curve] | – |
| O=C(Nc1nc(-c2ccc(Oc3ccccc3)cc2)cs1)C1=COCCO1 | inconclusive: 39.8 µM [inhibitor, single point] | – |
| Cc1ccc2nc3c(cc(C#N)c(=N)n3CC3CCCO3)c(=O)n2c1 (stereo not given) | inconclusive: 10 µM [inhibitor, partial curve] | – |
| O=C(Nc1ccc(NC(=O)C23CC4CC(CC(C4)C2)C3)cn1)c1ccco1 | inconclusive: 39.8 µM [inhibitor, single point] | – |
| O=C(CSc1nnc(C2COc3ccccc3O2)o1)N1CCN(c2ccccc2)CC1 (stereo not given) | – | inactive: 9.03% |
| CCc1ccc(NC(=O)c2ccc(OC)c([N+](=O)[O-])c2)cc1 | – | inactive: 4.8% |
| Cc1nc(-c2ccc(S(=O)(=O)Oc3ccccc3Cl)s2)cs1 | inconclusive: 22.4 µM [inhibitor, single point] | – |
| CCN(CC(=O)Nc1cccc(OC)c1)CC(=O)Nc1ccc(C)cc1Cl | inconclusive: 28.2 µM [inhibitor, single point] | – |
| COc1ccc(/C=N/Nc2ccc(C(=O)O)cc2)cc1Br | inconclusive: 22.4 µM [inhibitor, single point] | – |
| CC(=O)c1cc2c(cc1NC(=O)CSc1nnc(C)s1)OCO2 | inconclusive: 20 µM [inhibitor, partial curve] | – |
| Cc1sc2nc(COC(=O)c3ccc(Cl)c(N)c3)[nH]c(=O)c2c1C | inconclusive: 25.1 µM [inhibitor, partial curve] | – |

| Compound | Potency | activity change, negative = inhibition |
| --- | --- | --- |
| N[C@H](C(=O)O)[C@H](O)C(=O)O | inactive and active: 12.6 µM | – |
| CCN(CC)c1ccc(/C=C(\C#N)c2ccccn2)cc1 | – | inactive: 10.7% |
| Cc1ccccc1C(=O)Nc1nnc(CC(=O)N/N=C/c2cn(Cc3ccccc3)c3ccccc23)s1 | inconclusive: 39.8 µM [inhibitor, single point] | – |
| CC(C)CNC(=S)N(Cc1ccco1)Cc1cc2cc3c(cc2[nH]c1=O)OCCO3 | inconclusive: 28.2 µM [inhibitor, single point] | – |
| N#Cc1ccc(CSc2nnc(-c3cccs3)n2-c2ccccc2)cc1 | – | inactive: 8.58% |
| CCOc1ccc(N=CC2=C(O)CC(c3ccco3)CC2=O)cc1 (stereo not given) | inconclusive: 35.5 µM [inhibitor, single point] | – |
| FC(F)(Cl)c1nnc2ccc(Cl)nn12 | inconclusive: 35.5 µM [inhibitor, single point] | – |
| C=CCn1cc(C(=O)N2CCc3ccccc3C2)c(=O)c2cc(S(=O)(=O)N(CC)CC)ccc21 | inconclusive: 39.8 µM [inhibitor, single point] | – |
| CC(N=Cc1cccc(O)c1O)c1ccccc1 (stereo not given) | active: 14.1 µM | – |
| O=C(/C=C/c1ccc2c(c1)OCO2)Nc1nc(-c2ccc(F)cc2F)cs1 | inconclusive: 3.55 µM [inhibitor, single point] | – |
| CN(C)C(=O)CSc1cccc2cccnc12 | inconclusive: 31.6 µM [inhibitor, partial curve] | – |
| Cn1c(CN2CCOCC2)c(C#N)c2ccccc21 | inconclusive: 35.5 µM [inhibitor, single point] | – |
| CCOC(=O)CCCNC(=O)c1cncc(O)c1 | inconclusive: 28.2 µM [inhibitor, partial curve] | – |
| Cc1ccc(C)c(NC(=O)CSc2nc3nc(-c4cccs4)cc(C(F)(F)F)c3c(=O)[nH]2)c1 | inconclusive: 31.6 µM [inhibitor, partial curve] | – |
| COC(=O)c1sc2nc(-c3ccccc3)nc(N3CCN(C)CC3)c2c1C | inconclusive: 22.4 µM [inhibitor, partial curve] | – |
| COc1ccc(C(=O)O)nc1C | active: 14.1 µM | – |
| COc1ccc(C2(CCN=Cc3ccc(N(C)C)cc3)CCOC(C)(C)C2)cc1 (stereo not given) | inconclusive: 39.8 µM [inhibitor, single point] | – |
| C1=C(c2ccccc2)CCN(c2nc3ccccc3n3cnnc23)C1 | inconclusive: 35.5 µM [inhibitor, single point] | – |
| O=C1COc2ccc(C(=O)COC(=O)Cc3ccccc3F)cc2N1 | inconclusive: 35.5 µM [inhibitor, single point] | – |
| N#C/C(=C\c1ccco1)Sc1nc2ccccc2s1 | – | inactive: -20.7% |
| N=c1ccn(Cc2ccccc2Cl)cc1 | – | inactive: -3.45% |
| Cc1cc(NC(=O)CSc2n[nH]c(N)n2)no1 | inconclusive: 7.08 µM [inhibitor, single point] | – |
| Cn1c(SCc2ccccc2)nnc1C1CCCNC1 (stereo not given) | – | inactive: 3.21% |
| CC(C)c1cc(O)c(-c2ccccc2)c(=O)n1-c1ccc(Cl)cc1 | inconclusive: 35.5 µM [inhibitor, single point] | – |
| Cc1cc(C)cc(NC(=O)CSc2nc(N)c(NC(=O)c3cccs3)c(=O)[nH]2)c1 | – | inactive: -0.486% |
